Screen size: about 150,000 compounds; about 540 (0.36%) showed an effect of 50% or more. The list shows a part of the results.

The assay concerns Plasmodium falciparum. The experiment in a line: Primary screen in NF54 nanoGlo assay, in single point, at 2uM, 72h; a lower Z score goes with more inhibition. It is filed as functional, Erythrocyte. The settings on record: timepoint 72 hour.
What is called % Inhibition is the relative decrease from the control value, in per cent. As to `CC1([C@@](O)(C#CC[N+]2(C)CCCCC2)c2ccccc2)CCCC1`, the “% Inhibition” value turned out to be 60% and the Z score is on record as -9.64.
The like results for `CC(NC(=O)NC(C)C(=O)NCc1ccccc1)C(=O)NCc1ccccc1` (configuration not stated) were, in that order, -2% and 0.34.
The matching figures for `COc1ccc(-c2noc(CS(=O)(=O)Cc3cc(C)on3)n2)cc1OC`: -12% and 1.86.
The matching figures for `Cc1cccc(NC(=O)CN2CCN(S(=O)(=O)c3cnn(C)c3C)CC2)c1C`: -47% and 5.54.
Regarding `CN(CCO)C(=O)N[C@H](c1ccccc1)c1nc(C(C)(C)C)cs1`, the “% Inhibition” value is 12% and the Z score is given as -1.6.
For `Cc1noc(C)c1CC(=O)N1CCC(N2C(=O)COC2=O)CC1`, the “% Inhibition” value is reported as -7% and the Z score amounted to 1.42.
The like results for `COCCOc1ccc(F)cc1NC(=O)c1ccc(-n2nc(C)nc2C)cc1` were, in that order, 1% and -0.14.
With `C=CCC[C@@H](CN1CCCOCC1)Oc1cc(C#N)ccn1`, the “% Inhibition” value was 4% and the Z score is on record as -0.72.
`CC[C@](NC(=O)c1cccc2cc[nH]c12)(C(=O)O)c1ccccc1`: the “% Inhibition” value was 1% and the Z score was -0.16.
The matching figures for `Cc1ccc(C(O)CNC2CN(Cc3ccccc3)CCC2C)cc1` (configuration not stated): 17% and -2.03.
As for `NC(=O)N1CCC[C@H]1C(=O)N1CCCN(C(=O)C(F)(F)F)CC1`, the “% Inhibition” value worked out at 2% and the Z score was -0.46.
The matching figures for `O=C(c1nccc2ccccc12)N1CC(CF)C1`: -15% and 1.88.
In the case of `CCn1nc(-c2ccc(OC)c(OC)c2)c2c(=O)n(C)c(=O)[nH]c21`, the “% Inhibition” value was -6% and the Z score was 0.86.
Take `O=C1N(C2CCCCC2)C[C@H]2CN(Cc3ccc(F)cc3)CCN12`: the “% Inhibition” value is given as -8% and the Z score stood at 1.21.
For `c1nc(CN2CC[C@H](N3CCCCC3)C2)cs1`, the “% Inhibition” value was -20% and the Z score came to 1.87.
With `COC(=O)[C@H]1CN(C(=O)c2cc(C)sn2)C[C@@H]1c1ccc(O)cc1`, the “% Inhibition” value is given as -18% and the Z score is 3.5.
Consider `CCc1ccc(NCc2cn3ccccc3c2C#N)cc1`, for which the “% Inhibition” value came out at 0% and the Z score is listed as 0.03.
With `CCn1c([C@H]2CC(=O)N(Cc3ccccc3)C2)n[nH]c1=O`, the “% Inhibition” value amounted to 0% and the Z score came to 0.06.
As for `CC1CC1C(=O)Nc1cc(S(=O)(=O)N2CCOCC2)ccc1Oc1ccc(F)cc1` (configuration not stated), the “% Inhibition” value turned out to be 6% and the Z score is on record as -0.5.
In the case of `CC(=O)c1c(/C=C/C2CCCCC2)cnn1C`, the “% Inhibition” value is recorded as -10% and the Z score turned out to be 0.92.
Regarding `CC(C)(CNC(=O)c1cc(-c2cccc(Br)c2)nc2ccccc12)CNC(=O)c1cc(-c2cccc(Br)c2)nc2ccccc12`, the “% Inhibition” value is -35% and the Z score stood at 4.1.
With `O=C(NCc1ccco1)c1c[nH]c(=O)n(Cc2ccc3c(c2)OCO3)c1=O`, the “% Inhibition” value is listed as -10% and the Z score was determined as 1.72.
As for `COCC1CCN(CC(=O)N2CC(=O)Nc3ccccc32)CC1`, the “% Inhibition” value is given as -2% and the Z score stood at 0.26.
With `CC(=O)NC1CCC(N[C@@H](C)COc2ccccc2C)CC1` (some centres not stated), the “% Inhibition” value amounted to 2% and the Z score was -0.36.
`O=C(Nc1nc2c(s1)CN(C(=O)Nc1ccc(Cl)c(Cl)c1)CC2)c1cnccn1`: the “% Inhibition” value is recorded as -5% and the Z score is 0.67.
Regarding `Cc1n[nH]nc1C(=O)N[C@H](c1ccccc1)c1cc2ccccc2o1`, the “% Inhibition” value is listed as -2% and the Z score was 0.23.
With `O=C1CCC[C@H](CC(=O)N2CCOc3c2ccc(F)c3F)N1`, the “% Inhibition” value is -9% and the Z score is given as 0.76.
Regarding `C[C@H]1Cc2ccccc2N1C(=O)c1ccc(=O)n(CC(=O)N2CCN(c3ccccc3)CC2)n1`, the “% Inhibition” value stood at 0% and the Z score is on record as 0.06.
For `CCC[C@H](N)C(=O)N1CCc2onc(-c3cccc4ccccc34)c2C1`, the “% Inhibition” value worked out at 17% and the Z score was -2.29.
As to `Cc1nc2cc(C(=O)N(C)C[C@@H](c3cccs3)N3CCOCC3)ccc2n1C`, the “% Inhibition” value is reported as -6% and the Z score is on record as 0.69.
In the case of `Fc1ccc(CN2CCn3nc(CNc4cnccn4)cc3C2)cc1F`, the “% Inhibition” value is reported as -12% and the Z score was determined as 1.45.
Consider `CCC(CC)Nc1ccncc1NC(=O)c1nc(C)oc1C`, for which the “% Inhibition” value is given as -6% and the Z score amounted to 1.24.
With `O=C(c1cc(=O)[nH]c2c1CCCC2)N1CCCn2nncc2C1`, the “% Inhibition” value was found to be 1% and the Z score is on record as -0.15.
Turning to `COc1c(CN(C)[C@@H]2COC[C@H]2O)c(C)nn1C`, the “% Inhibition” value is given as -18% and the Z score came to 1.97.
For `CCc1ccc(NC(=O)Cn2c(=O)[nH]c3c(oc4ccccc43)c2=O)cc1`, the “% Inhibition” value is reported as -5% and the Z score came to 0.74.
As for `CCn1nc(C)c([C@H](C)NCC2=Cc3cc(Cl)ccc3OC2)c1C`, the “% Inhibition” value is on record as 0% and the Z score is -0.03.
For the compound `Cc1nn(C)cc1-c1nc(-c2ccco2)nn1C(C)(C)C`, the “% Inhibition” value is -10% and the Z score was found to be 2.08.
The like results for `O=C(N1CCOCC1)N1CC(Oc2cccnc2)C1` were, in that order, -2% and 0.39.
The like results for `CC1CC1C(=O)NCCCC1CCCCC1` (configuration not stated) were, in that order, -7% and 1.3.
For the compound `CC(=O)Nc1ccc(CN(C)[C@H]2CCCN(CCCc3ccccc3)C2)cc1`, the “% Inhibition” value was -9% and the Z score is 0.79.
For the compound `NC(=O)[C@]12CCC[C@H]1CN(C(=O)NCc1ccc(C3CC3)cc1F)C2`, the “% Inhibition” value is on record as -4% and the Z score turned out to be 0.7.
The matching figures for `CN(CC(C)(C)CO)C(=O)Cc1ccc(O)c(F)c1`: -5% and 0.93.
On to `COC(=O)c1ccc(NC(=O)N(Cc2ccncc2)C2CCCCC2)cc1`, for which the “% Inhibition” value was -3% and the Z score is recorded as 0.49.
`N#Cc1c(NC(=O)c2ccc(Cc3ccccc3)cc2)sc2c1CCC2`: the “% Inhibition” value was determined as 5% and the Z score is recorded as -0.82.
In the case of `O=C(COCc1cc(-c2ccco2)on1)NCc1ccc2c(c1)OCO2`, the “% Inhibition” value amounted to 2% and the Z score is reported as -0.29.
Regarding `CCc1nnc(CNc2nc(C)ncc2CC)s1`, the “% Inhibition” value was -10% and the Z score stood at 1.25.
In the case of `C[C@@H]1CN(CC(O)C(F)(F)F)CCN1C(=O)OC(C)(C)C` (some centres not stated), the “% Inhibition” value was 2% and the Z score is listed as -0.39.
In the case of `CC(CC(=O)NC(C)c1ncon1)c1ccc(F)cc1F` (configuration not stated), the “% Inhibition” value is recorded as -3% and the Z score was found to be 0.44.
In the case of `CC(C)(C)n1cc(C(=O)NCc2nnc[nH]2)cn1`, the “% Inhibition” value is -2% and the Z score is on record as 0.22.
For the compound `COCc1ccc(C(=O)N2CCc3[nH]c(-c4cccnc4)nc3C2)s1`, the “% Inhibition” value is -2% and the Z score worked out at 0.38.
Take `Cc1nc(C)n(CC2CCCCN2CC(O)CN2CCOCC2)n1` (configuration not stated): the “% Inhibition” value is -13% and the Z score is recorded as 1.1.
In the case of `O=C1N[C@@H](C2CCCCC2)C(=O)N2CCC[C@H]12`, the “% Inhibition” value was -15% and the Z score is recorded as 1.55.
`Cc1c(S(=O)(=O)N2CC(F)CC2CO)oc2ccc(F)cc12` (configuration not stated): the “% Inhibition” value was -18% and the Z score stood at 1.82.
Consider `Cn1nccc1-c1ccc(NC(=O)NC[C@H](O)C2CCCCC2)nn1`, for which the “% Inhibition” value is -7% and the Z score is 1.26.
The like results for `O=C(NS(=O)(=O)[C@H]1CC2CCC1CC2)c1cncc2ccccc12` were, in that order, 10% and -1.8.
As for `CC1CN(c2nccn(C(F)F)c2=O)CC(C)[S+]1[O-]` (configuration not stated), the “% Inhibition” value was -5% and the Z score amounted to 0.91.
Turning to `CN1CCOC[C@H]1C(=O)OC1CCCCCC1`, the “% Inhibition” value was -3% and the Z score is 0.28.
For `CCn1ncc(CNC(=O)N[C@H]2CCCc3nn(C)cc32)n1`, the “% Inhibition” value turned out to be 4% and the Z score is reported as -0.72.
As for `O=C(Cc1nnc(-c2ccc3ncccc3c2)o1)Nc1cccc(C(F)(F)F)c1`, the “% Inhibition” value was 9% and the Z score was -0.92.
For `CC(=O)Nc1nc(C)c(S(=O)(=O)N2[C@@H]3CC[C@H]2CNC(=O)C3)s1`, the “% Inhibition” value is -12% and the Z score came to 1.95.
The matching figures for `O=C(Cc1ccccc1Cl)N[C@H]1CCN(c2nccn3cnnc23)C1`: -18% and 2.3.
Turning to `CC(C)c1ccc(C#N)c(N(C)Cc2nncn2C)n1`, the “% Inhibition” value was -7% and the Z score was determined as 0.87.
The like results for `Cn1ccc(CN2CCN(Cc3ccc4c(c3)CCO4)CC2)cc1=O` were, in that order, 4% and -0.79.
In the case of `CCCCOc1ccc(CN(C)C)cc1CN(C)C`, the “% Inhibition” value was -13% and the Z score is listed as 1.71.
With `CCc1csc(N2CC(c3nc(C)cc(C)n3)C2)n1`, the “% Inhibition” value is 2% and the Z score is reported as -0.28.
The like results for `COc1cnc(CN(C)CCN2CCCCC2=O)cc1O` were, in that order, -11% and 1.42.
On to `CCc1cccc(N2C(=O)c3cc(C(=O)OC)nn3C[C@@]2(C)C(=O)NC2CCC(C)CC2)c1` (some centres not stated), for which the “% Inhibition” value was determined as 6% and the Z score is on record as -0.7.
As to `CN(CCN1CCOC1=O)Cc1cnoc1-c1ccc(Cl)cc1`, the “% Inhibition” value is listed as -16% and the Z score stood at 3.1.
Take `Cc1ccccc1C(=O)N(CC(=O)N(Cc1ccc(F)cc1)Cc1sccc1C)C(C)C`: the “% Inhibition” value is on record as 2% and the Z score is given as -0.27.
In the case of `COCCN1C[C@@H](Cc2cc(Cl)ccc2OC)CC1=O`, the “% Inhibition” value is -20% and the Z score was 1.74.
The like results for `O=C(NCCc1cccc(-c2ccccc2)c1)N1C2CCC1CC(O)C2` (configuration not stated) were, in that order, -3% and 0.56.
Consider `O=C(NCCn1ncccc1=O)c1ccc(OCc2nc(-c3ccco3)cs2)cc1`, for which the “% Inhibition” value was -4% and the Z score came to 0.81.
Regarding `CCCC[C@H](CC)C(=O)Nc1ccccc1C`, the “% Inhibition” value amounted to 36% and the Z score is given as -0.94.
With `Cc1cc(N2CCC[C@@H]2CO)c2ccccc2n1`, the “% Inhibition” value is listed as -6% and the Z score was found to be 0.57.
The like results for `CCc1ccc(NC(=O)[C@H]2CCCN(c3nnc(N4CCCC4=O)s3)C2)cc1` were, in that order, -14% and 2.53.
The like results for `Cc1ccc(OS(=O)(=O)c2cccc(Cl)c2Cl)c(-c2nc3ncccc3o2)c1` were, in that order, -20% and 2.05.
`Cc1ccc(F)c(S(=O)(=O)N2CCC[C@H](Cn3cncn3)C2)c1`: the “% Inhibition” value amounted to 2% and the Z score was -0.37.
The like results for `C=CCCN(C)c1nnnn1CCC(=O)N1CCCCC1` were, in that order, -5% and 0.82.
The like results for `CCc1nnc(CN(C)Cc2ccnn2C)o1` were, in that order, -9% and 0.94.
The like results for `COCCCN/C(=N\S(C)(=O)=O)Nc1ccc(OC)c(OC)c1` were, in that order, -16% and 1.93.
Regarding `CC(C)n1[nH]c(=O)c2c(-c3ccc(C(=O)O)cc3)c3sc(=O)[nH]c3nc21`, the “% Inhibition” value was -19% and the Z score is listed as 2.19.
The matching figures for `C/C(=C\c1ccco1)CN[C@H]1CCCc2nc(-c3cccnc3)ncc21`: -5% and 0.78.
On to `C[C@H](OC(=O)c1cccn1C)c1ccccn1`, for which the “% Inhibition” value is -2% and the Z score was found to be 0.3.
For the compound `Cc1csc(-n2c(C)cc(C(=O)CN3CCCCC3)c2C)n1`, the “% Inhibition” value is on record as 4% and the Z score is given as -0.58.
As for `O=C(Cc1c[nH]c2cc(Cl)ccc12)NCCN1CCNCC1`, the “% Inhibition” value was -2% and the Z score was found to be 0.32.
For `c1ccc(-c2nc3c([nH]2)CCc2nonc2-3)cc1`, the “% Inhibition” value was -36% and the Z score is on record as 4.18.
